The campaign covered roughly 150,000 compounds. About 540 (0.36%) showed an effect of 50% or more. Some of the results follow.
Test system: Plasmodium falciparum
Experiment: Primary screen in NF54 nanoGlo assay, in single point, at 2uM, 72h; a lower Z score goes with more inhibition
Format: functional, Erythrocyte
Conditions: timepoint 72 hour

Row | SMILES | % Inhibition [%] | Z score
1 | CCNC(=O)C1(CNC(=O)c2scnc2C(C)C)CCC1 | -3 | 0.46
2 | CC(C)[C@H](NC(=O)Nc1cnc2[nH]ccc2c1)C(N)=O | -6 | 0.62
3 | CCOC(=O)[C@H](C)N1CCCN(C(=O)CC)CC1 | 5 | -0.44
4 | O=C(C[C@H]1CCCOC1)Nc1ccc(Oc2nnn[nH]2)cc1 | 0 | -0.09
5 | COc1ccc(OC)c(Cc2nnc(CCC(=O)NCc3nc4ccccc4s3)o2)c1 | -11 | 2
6 | Cc1c(CC(=O)Nc2ccc3c(c2)CCC3)cnn1C | -2 | 0.34
7 | O=C(N[C@H]1CC(=O)N(c2ccccc2)C1)c1cccc(-c2ncon2)c1 | -14 | 1.89
8 | CCC(NC(=O)CCc1ccc(C)o1)C(c1ccc(C)cc1)n1cncn1 (stereo unspecified) | 7 | -0.73
9 | Cc1nnc(N2CC[C@H](C)C3(CCC3)C2)n1C | -7 | 0.66
10 | CCONC(=O)[C@H](C)Oc1cccc(C#N)c1 | -8 | 1.22
11 | O=C(Nc1cccnn1)Nc1ccn(CCc2ccncc2)n1 | -7 | 0.81
12 | COc1cc(OC)cc(-c2onc(C)c2C(=O)NCCc2ccc(F)cc2)c1 | -4 | 0.61
13 | CC(C)C(=O)N1CCC(NC(=O)[C@H](O)c2ccccc2Cl)C1 (stereo partly specified) | -13 | 1.9
14 | CC(C)c1cccc2c1CCN(C(=O)C1CCN(C)CC1)C2 | -2 | 0.39
15 | Cc1cc(C)c2nc(CN3CCC[C@H]3C(=O)N3CCOCC3)cc(O)c2c1 | -10 | 0.9
16 | COc1ccc(NC(=O)CC(=O)NCc2cc(C)n[nH]2)c(OC)c1 | -10 | 1.23
17 | CCc1ccc(NC(=O)CC2CCN(S(=O)(=O)c3ccc4c(c3)CCN4C(C)=O)CC2)cc1 | -18 | 2.29
18 | CC(C)(C)OC(=O)N1CCC(=C2CC2)CC1 | -14 | 1.69
19 | CO[C@H]1[C@H](NC(=O)c2cccs2)c2ccccc2C12CCN(Cc1c(F)ccc(F)c1F)CC2 | -1 | 0.24
20 | COc1ccccc1CNC(=O)C(F)(F)C1(O)CCC1 | -2 | 0.34
21 | Cc1ccc(-c2noc(C(C)N3CCN(C(C)C(=O)Nc4ccc(OC(F)F)cc4)CC3)n2)cc1 (stereo unspecified) | 4 | -0.72
22 | CCCCS(=O)(=O)NC(=O)c1cc(F)c(F)c(F)c1 | -1 | 0.06

Row | SMILES | % Inhibition [%] | Z score
23 | CN(CC1(O)CCCC1)C(=O)C1(C)CC1F (stereo unspecified) | -2 | 0.26
24 | COc1ccc(NC(=O)N2CC=C(c3cn(C(C)C)c4ncccc34)CC2)cc1Cl | -3 | 0.37
25 | COc1ccc(-n2nnnc2-c2cnc3ccccc3c2-c2ccccc2)cc1 | -11 | 1.25
26 | O=C1NC(=O)N2CCN(CC3CCC(c4ccccc4)CC3)C[C@@H]12 (stereo partly specified) | 26 | -2.91
27 | Cc1ccc2cc(CN3CCn4cccc4[C@H]3c3ccccn3)c(=O)[nH]c2c1 | -5 | 0.83
28 | COC(=O)c1cc(NC(=O)C(Cl)(Cl)Cl)cc(C(=O)OC)c1 | 2 | -0.29
29 | COc1cc(-c2cccc(-c3cc[nH]n3)c2)ccc1O | -2 | 0.4
30 | Cc1ccn2cc(C(=O)N3CCN(C)CC3)nc2c1 | -8 | 1.57
31 | CS(=O)(=O)N1CCC[C@@H]1CCc1noc(-c2cccnc2)n1 | -4 | 0.64
32 | COc1ccc(CN2CCO[C@]3(CCOC3)C2)cc1OCc1ccccc1 | -7 | 1.07
33 | CCc1noc(CNC(=O)CCc2scnc2C)n1 | -5 | 0.73
34 | Cn1nc(C(=O)NCc2cccs2)cc1C(=O)NCc1cccs1 | 43 | -5.76
35 | CN(C(=O)c1cnc(-c2ccccc2)nc1)C1C2CCOC2C1(C)C (stereo unspecified) | -9 | 1.38
36 | CC(C)N(C)CC(=O)NCC1(O)CCCCC1 | -4 | 0.62
37 | Cn1nc(-c2ccccn2)cc1CNC(=O)c1cccc(Cl)c1 | -4 | 0.5
38 | CNS(=O)(=O)N1CCC[C@H](c2ccncc2)CC1 | -14 | 2.77
39 | O=C(Nc1ccccc1Oc1ccccc1)c1n[nH]c(=O)c2ccccc12 | -15 | 1.98
40 | CCNC(=O)c1ccc(-c2ccccc2CN2CCOCC2)s1 | 0 | 0.01
41 | CC[C@H](C)NC(=O)c1cc(NS(=O)(=O)c2ccc(C)cc2)cnc1N1CCNCC1 | -6 | 0.79
42 | O=C(CN1C(=O)CN(C(=O)Nc2ccccc2)c2ccccc21)NCc1ccccn1 | -12 | 1.6
43 | CCCc1sc(N(C(=O)c2ccc(F)cc2)c2ccc(OC)cc2)nc1-c1ccccc1 | -12 | 1.9
